Results: PubChem BioAssay (NCATS)
Inconclusive means that the source gave no clear call. Such entries were picked first, then a sample of the others. For some assays here: Potencies beside an inconclusive call are fits to weak or partial responses and may not hold up. Active and inactive are the calls of the source. Unless noted, the call rests on the fitted dose curve; in most records, active means well fitted curve in either direction with a large enough effect (not every such curve was filed as active); inconclusive means small, poorly fitted or top-dose-only effect, or another doubt; inactive means flat fitted curve, though single readings scatter.

Key:
[1] = AP1 Signaling Pathway (AID 357); details: ME-180 AP-1-bla reporter, EGF-induced, beta-lactamase ratio, 5 h; at 17.2 µM (top of the series) unless noted;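 further: ME-180 reporter cells stimulated with EGF at its EC50 level; top concentration of the series differs between compounds; on the % scale 0 is the no-effect control and ±100 the full control effect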
In short: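 In this screen, ME-180 cells in Opti-MEM with 0.5% dialyzed FBS received EC50 EGF and compound titrations for 5 h. AP-1 reporter beta-lactamase was detected via CCF4 ratio, giving AC50 for positive and negative modulators.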

[2] = NFAT Signaling Pathway (AID 444); details: Jurkat NFAT-bla M1, carbachol, beta-lactamase ratio, 5 h; at 17.2 µM (top of the series) unless noted;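 further: carbachol stimulus at about its EC50 of 1 µM final; on the % scale 0 is the no-effect control and ±100 the full control effect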
In short: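 Read-out: CCF4 FRET ratio (460 nm/530 nm) after 1 h RT dye loading, used for %activity and AC50 from titration series. Cells: Jurkat NFAT-β-lactamase/M1 line, treated with compound plus 1 uM carbachol for 5 h, 37 °C.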

[3] = Stat Signaling Pathway (AID 446); details: ME-180 SIE beta-lactamase reporter, IL-6 stimulated, 5 h; at 7.69 µM (top of the series) unless noted;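 further: ME-180 cervical cancer cells given 40 pM IL-6 alongside compound; SIE-controlled beta-lactamase reporter measured as 460/530 nm FRET emission ratio; top concentration of the series differs between compounds; on the % scale 0 is the no-effect control and ±100 the full control effect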
In short: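 Emission at 460 and 530 nm (excitation 405 nm) reports SIE-controlled beta-lactamase in ME-180 cells. Cells received compound with 40 pM IL-6 for 5 hrs at 37 C; data scaled between 300 pM IL-6 and 125 nM JAK-inhibitor controls.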

[4] = qHTS Assay for Identification of Small Molecule Agonists for Hypoxia Response Element Signaling Pathway (AID 914; active means well fitted activation curve with a large enough effect in the signal ratio, with a control signal flat, not every such curve was filed as active; inconclusive means small, poorly fitted or top-dose-only effect, or effect the other way, or a change in a side signal; the % refers to the signal ratio; further: potency means the concentration at half of the fitted maximal effect; on activation: top concentration of the series differs between compounds; % of control where 0% means no effect); details: ME-180 (cervical carcinoma) HRE-bla reporter, beta-lactamase ratio, CoCl2, 17 h; activation: active compounds read high
In short: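 HRE-bla ME-180 cells, overnight plating in Opti-MEM with 0.5% dialyzed FBS; cpd titration + EC50 CoCl2, 17 h, 37 degrees Celsius; CCF4 2.5 h RT; 460/530 nm ratio; AC50.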

[5] = target: Tyrosyl-DNA phosphodiesterase 1 (Homo sapiens) (UniProt Q9NUW8); experiment: Confirmation Assay for Inhibitors of Tyrosyl-DNA Phosphodiesterase (TDP1) (AID 489007; active means well fitted curve in the direction sought with a large enough effect; inconclusive means small, poorly fitted or top-dose-only effect, or another doubt; inactive means no such curve, though single readings can be large; an effect the other way counts as inactive or inconclusive; further: potency means the concentration at half of the fitted maximal effect; nearly all actives have a fitted effect of over 40% in size); details: recombinant human TDP1 enzymatic activity, dose-response
Chain of UniProt Q9NUW8 (Q9NUW8 whole entry, looked up): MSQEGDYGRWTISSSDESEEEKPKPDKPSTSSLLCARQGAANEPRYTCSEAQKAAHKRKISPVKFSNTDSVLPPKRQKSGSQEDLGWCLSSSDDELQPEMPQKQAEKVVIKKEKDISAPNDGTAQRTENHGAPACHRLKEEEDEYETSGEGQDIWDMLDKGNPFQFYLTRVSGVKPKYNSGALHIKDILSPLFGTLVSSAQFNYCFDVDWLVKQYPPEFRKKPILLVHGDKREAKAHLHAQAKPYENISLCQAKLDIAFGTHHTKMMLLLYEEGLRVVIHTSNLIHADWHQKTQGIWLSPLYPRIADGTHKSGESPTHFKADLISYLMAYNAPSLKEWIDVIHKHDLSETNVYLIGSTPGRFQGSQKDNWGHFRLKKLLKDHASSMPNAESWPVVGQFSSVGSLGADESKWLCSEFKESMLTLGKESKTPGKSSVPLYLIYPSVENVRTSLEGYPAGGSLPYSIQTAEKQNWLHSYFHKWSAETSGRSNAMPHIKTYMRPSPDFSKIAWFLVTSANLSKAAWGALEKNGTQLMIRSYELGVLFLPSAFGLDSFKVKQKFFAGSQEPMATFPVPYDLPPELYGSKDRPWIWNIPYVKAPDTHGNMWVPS
In short: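 AlphaScreen assay of tyrosine-FITC cleavage from a biotinylated DNA substrate (15 nM) by E. coli-expressed human Tdp1 (1 nM). Sequence: compound preincubation 15 min, reaction 5 min, bead detection 10 min, all at room temperature. No-enzyme wells give maximum signal.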

[6] = target: Glucocorticoid receptor (Homo sapiens) (UniProt P04150); experiment: GR-GFP Redistribution (AID 450;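 active means compounds whose dose series gives a full or clear partial fitted curve of increased nuclear translocation; inconclusive means weak partial curve or effect only at the top dose; inactive means no dose-dependent translocation response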; further: potency means the concentration at half of the fitted maximal effect); details: U2OS GR-GFP nuclear translocation, laser cytometry, 2 h
Chain of UniProt P04150 (P04150 whole entry, looked up): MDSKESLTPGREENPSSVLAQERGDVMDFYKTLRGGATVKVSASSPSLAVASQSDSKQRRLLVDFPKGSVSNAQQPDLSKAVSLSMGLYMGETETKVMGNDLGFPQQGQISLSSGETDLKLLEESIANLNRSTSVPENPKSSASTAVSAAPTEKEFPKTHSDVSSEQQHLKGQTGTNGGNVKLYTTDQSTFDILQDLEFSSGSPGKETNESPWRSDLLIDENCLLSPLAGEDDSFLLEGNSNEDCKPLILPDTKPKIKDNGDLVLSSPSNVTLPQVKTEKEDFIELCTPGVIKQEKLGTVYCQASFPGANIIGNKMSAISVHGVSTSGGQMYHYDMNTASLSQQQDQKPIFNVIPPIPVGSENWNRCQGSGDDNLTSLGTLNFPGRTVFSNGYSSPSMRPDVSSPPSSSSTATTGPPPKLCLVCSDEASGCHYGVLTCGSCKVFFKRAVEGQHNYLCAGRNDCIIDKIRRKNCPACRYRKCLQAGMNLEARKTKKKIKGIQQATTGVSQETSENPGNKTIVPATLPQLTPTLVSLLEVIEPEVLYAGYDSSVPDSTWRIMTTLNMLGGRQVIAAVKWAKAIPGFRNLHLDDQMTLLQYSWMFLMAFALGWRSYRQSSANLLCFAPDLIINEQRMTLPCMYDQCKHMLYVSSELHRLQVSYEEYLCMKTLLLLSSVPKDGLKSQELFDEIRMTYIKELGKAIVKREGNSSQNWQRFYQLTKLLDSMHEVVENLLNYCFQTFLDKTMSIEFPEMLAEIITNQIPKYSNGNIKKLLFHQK

[7] = target: 3',5'-cyclic-AMP phosphodiesterase 4B (Homo sapiens) (UniProt Q07343); experiment: qHTS Assay for Inhibitors of PDE-IV (AID 607; active means well fitted activation curve with a large enough effect in the main read-out, with a control signal flat, not every such curve was filed as active; inconclusive means small, poorly fitted or top-dose-only effect, or effect the other way, or a change in a side signal; further: potency means the concentration at half of the fitted maximal effect); details: HEK293 ACTOne CNG channel cells, membrane potential fluorescence; activation (PDE inhibition): at 22.9 µM (top of the series)
Chain of UniProt Q07343 (Q07343 whole entry, looked up): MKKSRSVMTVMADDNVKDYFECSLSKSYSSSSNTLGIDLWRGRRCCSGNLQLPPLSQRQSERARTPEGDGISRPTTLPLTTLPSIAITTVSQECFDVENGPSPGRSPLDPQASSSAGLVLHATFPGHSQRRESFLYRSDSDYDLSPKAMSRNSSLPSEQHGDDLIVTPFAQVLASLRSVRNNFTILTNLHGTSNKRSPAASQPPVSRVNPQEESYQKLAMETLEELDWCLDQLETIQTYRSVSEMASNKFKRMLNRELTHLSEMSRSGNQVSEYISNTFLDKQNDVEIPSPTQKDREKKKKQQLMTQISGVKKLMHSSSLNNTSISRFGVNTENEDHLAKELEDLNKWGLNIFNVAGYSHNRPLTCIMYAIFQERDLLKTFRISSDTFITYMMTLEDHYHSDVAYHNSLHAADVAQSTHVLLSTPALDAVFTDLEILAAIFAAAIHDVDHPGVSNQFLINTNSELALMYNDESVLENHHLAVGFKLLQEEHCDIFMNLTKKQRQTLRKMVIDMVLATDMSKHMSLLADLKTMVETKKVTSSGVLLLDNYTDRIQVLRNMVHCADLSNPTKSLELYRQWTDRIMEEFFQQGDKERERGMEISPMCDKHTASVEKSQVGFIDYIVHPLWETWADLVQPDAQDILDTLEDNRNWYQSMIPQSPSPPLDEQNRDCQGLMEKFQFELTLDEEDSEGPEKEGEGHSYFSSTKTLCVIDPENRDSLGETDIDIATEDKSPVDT
In short: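 The readout is membrane depolarisation from a cAMP-sensing CNG channel, detected with a potential dye at ex 535/em 590. Cells were HEK293-derived (endogenous PDE-IV) at 1000 cells/well, titrated up to 22.9 uM final.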

[8] = target: Cytochrome P450 2C9 (Homo sapiens) (UniProt P11712); experiment: qHTS Assay for Inhibitors and Substrates of Cytochrome P450 2C9 (AID 883; active means well fitted curve in the direction sought with a large enough effect; inconclusive means small, poorly fitted or top-dose-only effect, or another doubt; inactive means no such curve, though single readings can be large; an effect the other way counts as inactive or inconclusive; further: potency means the concentration at half of the fitted maximal effect; nearly all actives have a fitted effect of over 60% in size); details: recombinant CYP2C9, luciferin-H luminescence, 60 min; activity change, negative = inhibition: at 57.1 µM (top of the series)
Chain of UniProt P11712 (P11712 whole entry, looked up): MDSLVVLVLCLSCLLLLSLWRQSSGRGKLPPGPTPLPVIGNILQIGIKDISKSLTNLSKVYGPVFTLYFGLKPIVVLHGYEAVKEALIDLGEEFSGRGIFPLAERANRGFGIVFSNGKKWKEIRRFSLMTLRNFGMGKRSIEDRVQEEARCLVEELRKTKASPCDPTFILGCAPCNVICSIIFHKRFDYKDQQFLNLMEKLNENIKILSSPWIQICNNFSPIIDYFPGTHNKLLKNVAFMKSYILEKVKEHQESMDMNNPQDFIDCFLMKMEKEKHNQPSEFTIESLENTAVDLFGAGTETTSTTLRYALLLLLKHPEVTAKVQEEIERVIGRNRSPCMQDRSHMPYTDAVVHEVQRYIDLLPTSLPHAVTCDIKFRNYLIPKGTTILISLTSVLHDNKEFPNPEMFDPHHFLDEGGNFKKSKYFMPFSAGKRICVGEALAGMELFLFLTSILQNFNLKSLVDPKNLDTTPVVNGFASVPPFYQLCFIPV
In short: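 Turnover of Luciferin-H (100uM, KM) by 10nM human CYP2C9 was measured over 60 min at 37C with NADPH regeneration; inhibitors and some substrates reduce luminescence. Data normalized to sulphaphenazole 57uM.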

[9] = qHTS Validation Assay to Find Inhibitors of Chronic Active B-Cell Receptor Signaling (AID 485345; active means well fitted curve in the direction sought with a large enough effect in the main read-out, with a control signal flat, not every such curve was filed as active; inconclusive means small, poorly fitted or top-dose-only effect, or effect the other way, or a change in a side signal; inactive means no such curve, though single readings can be large or run the other way;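 further: 0% = untreated basal cells and 100% = 10 µM MG-132 proteasome inhibitor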); details: ABC-DLBCL cells, chronic BCR signaling reporter, CBG luciferase; at 46.1 µM (top of the series)
In short: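 Read-out: ratio of filter-corrected green (IkappaBalpha fusion) to red (native) luciferase signal in doxycycline-induced TMD8 cells after 4 h at 37C. Titration spanned 46 uM–3 nM; Data were normalised to basal cells and 10 uM MG-132 wells.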

[10] = qHTS for Inhibitors of ATXN expression: Validation of Cytotoxic Assay (AID 588349; active means well fitted curve in the direction sought with a large enough effect; inconclusive means small, poorly fitted or top-dose-only effect, or another doubt; inactive means no such curve, though single readings can be large; an effect the other way counts as inactive or inconclusive; further: potency means the concentration at half of the fitted maximal effect)
In short: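 Cytotoxicity counter-screen: ATP-based luminescent viability (CellTiter Glo) after 72 hr exposure of HEK293 cells to a compound titration at 37 degrees C.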

[11] = target: Ubiquitin carboxyl-terminal hydrolase 1 (Homo sapiens) (UniProt O94782); experiment: Inhibitors of USP1/UAF1: Pilot qHTS (AID 504865; active means well fitted curve in the direction sought with a large enough effect; inconclusive means small, poorly fitted or top-dose-only effect, or another doubt; inactive means no such curve, though single readings can be large; an effect the other way counts as inactive or inconclusive;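 further: rhodamine fluorescence freed from ubiquitin-rhodamine substrate followed over time; top concentration of the series differs between compounds; on the % scale 0 is the no-effect control and ±100 the full control effect; nearly all actives have a fitted effect of over 35% in size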)
Chain of UniProt O94782 (O94782 whole entry, looked up): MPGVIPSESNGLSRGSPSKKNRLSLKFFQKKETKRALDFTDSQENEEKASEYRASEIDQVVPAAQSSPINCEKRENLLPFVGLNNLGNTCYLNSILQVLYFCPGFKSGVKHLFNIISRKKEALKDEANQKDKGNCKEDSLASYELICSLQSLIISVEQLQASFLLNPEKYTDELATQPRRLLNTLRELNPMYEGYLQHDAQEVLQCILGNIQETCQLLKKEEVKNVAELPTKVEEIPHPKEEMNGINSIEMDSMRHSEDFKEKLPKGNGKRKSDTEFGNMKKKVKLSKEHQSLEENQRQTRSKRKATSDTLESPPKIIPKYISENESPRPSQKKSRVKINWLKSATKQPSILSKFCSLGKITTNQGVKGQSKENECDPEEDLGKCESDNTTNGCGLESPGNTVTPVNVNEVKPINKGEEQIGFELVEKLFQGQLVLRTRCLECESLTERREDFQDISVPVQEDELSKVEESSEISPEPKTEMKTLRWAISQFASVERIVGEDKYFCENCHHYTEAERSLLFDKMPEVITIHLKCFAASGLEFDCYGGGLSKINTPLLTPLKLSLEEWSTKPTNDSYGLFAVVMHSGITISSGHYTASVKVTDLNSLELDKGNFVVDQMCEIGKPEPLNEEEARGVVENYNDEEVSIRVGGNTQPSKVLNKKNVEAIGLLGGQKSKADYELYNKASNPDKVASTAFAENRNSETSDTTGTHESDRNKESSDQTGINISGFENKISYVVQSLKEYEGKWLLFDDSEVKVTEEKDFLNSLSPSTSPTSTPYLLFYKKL
In short: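 Kinetic fluorescence assay: 1nM USP1/UAF1, 15 min compound preincubation, then 150nM Ub-Rho; 480/540 nm.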
Tags describe the fitted curve by direction and shape or compound fluorescence and quenching.

## CCOc1cccc(-c2nnc3sc(C4CCCCC4)nn23)c1
[1]
  activity change, negative = inhibition: inconclusive: -102% [inhibitor]
[2]
  activity change, negative = inhibition: inconclusive: -98.2% [inhibitor]
[3]
  activity, negative = inhibition: inconclusive: -53.7% [inhibitor] [at 17.2 µM]

## COc1ccc(C[C@@H]2C(=O)N[C@H](C)C(=O)N(C)[C@@H]3Cc4ccc(cc4)Oc4cc(ccc4O)C[C@H](C(=O)N[C@@H](C)C(=O)N[C@H](C)C(=O)N2C)N(C)C3=O)cc1
[1]
  activity change, negative = inhibition: active: -121% [at 7.69 µM]
[2]
  activity change, negative = inhibition: active: -132% [at 7.69 µM]
[3]
  activity, negative = inhibition: active: -104%

## Cc1noc(C)c1-c1ccc2ncnc(NC3CC3)c2c1
[1]
  activity change, negative = inhibition: inconclusive: 35.7% [activator] [at 7.69 µM]
[2]
  activity change, negative = inhibition: inconclusive: -76% [inhibitor] [at 7.69 µM]
[3]
  activity, negative = inhibition: inconclusive: -32.7% [inhibitor]
[4]
  Potency: inconclusive: 3.98 µM [activator, single point]
[5]
  Potency: inconclusive: 10 µM [inhibitor, full curve]

## COc1ccc(CNc2oc(COc3ccccc3Cl)nc2C#N)cc1
[1]
  activity change, negative = inhibition: inconclusive: -31.5% [inhibitor]
[2]
  activity change, negative = inhibition: inconclusive: -45.2% [inhibitor]
[3]
  activity, negative = inhibition: inconclusive: -30.8% [inhibitor] [at 17.2 µM]
[6]
  Potency: inactive: > 20.6 µM
[4]
  activation: inconclusive: -18.9%

## CC[C@@H](CO)Nc1nc(NCc2ccccc2)c2ncn(C(C)C)c2n1
[1]
  activity change, negative = inhibition: inconclusive: -104% [inhibitor] [at 38 µM]
[2]
  activity change, negative = inhibition: inconclusive: -101% [inhibitor] [at 38 µM]
[3]
  activity, negative = inhibition: inconclusive: -98.1% [inhibitor] [at 38 µM]
[7]
  Potency: inconclusive: 7.94 µM [activator, partial curve]
[8]
  Potency: inconclusive: 0.316 µM [inhibitor, full curve, poor fit]
[9]
  activity change: inconclusive: 49.4%
[10]
  Potency: inconclusive: 39.8 µM [cytotoxic, single point]

## CCN(CC)C(=O)c1sc2nc(-c3cccs3)cc(-c3cccs3)c2c1N
[1]
  activity change, negative = inhibition: inconclusive: -55.4% [inhibitor]
[2]
  activity change, negative = inhibition: inconclusive: -110% [inhibitor]
[3]
  activity, negative = inhibition: inconclusive: -45.7% [inhibitor] [at 17.2 µM]

## OCc1ccncc1.OCc1ccncc1.[Cl][Pt]([Cl])([Cl])[Cl]
[1]
  activity change, negative = inhibition: inconclusive: 31.4% [activator] [at 7.69 µM]
[2]
  activity change, negative = inhibition: inconclusive: -59.9% [inhibitor] [at 7.69 µM]
[3]
  activity, negative = inhibition: inconclusive: -51.7% [inhibitor]

## CCN1CCc2c(C#N)c(N3CCOCC3)nc(NCc3ccccc3)c2C1
[1]
  activity change, negative = inhibition: inactive: 1.6%
[2]
  activity change, negative = inhibition: inconclusive: -49.2% [inhibitor]
[3]
  activity, negative = inhibition: inactive: 1.47% [at 17.2 µM]
[6]
  Potency: inconclusive: 25.7 µM [partial curve]

## Fc1ccc2[nH]c3c(N4CCN(c5ccccc5)CC4)ncnc3c2c1
[1]
  activity change, negative = inhibition: inconclusive: -77.4% [inhibitor]
[2]
  activity change, negative = inhibition: inconclusive: -126% [inhibitor]
[3]
  activity, negative = inhibition: active: -93.2% [at 17.2 µM]

## COc1cccc(-c2nc(NC(C)C)c3ccccc3n2)c1O
[1]
  activity change, negative = inhibition: inconclusive: -41.8% [inhibitor]
[2]
  activity change, negative = inhibition: inconclusive: -85.7% [inhibitor]
[3]
  activity, negative = inhibition: inconclusive: -39% [inhibitor] [at 17.2 µM]

## Cc1nc2sc3c(c2c(=O)o1)CC(C)(C)OC3
[1]
  activity change, negative = inhibition: inconclusive: -49.7% [inhibitor]
[2]
  activity change, negative = inhibition: inactive: -10.1%
[3]
  activity, negative = inhibition: inactive: -8.31% [at 17.2 µM]

## COc1ccc(-c2nn(C)c(=O)c3ccccc23)cc1NS(C)(=O)=O
[1]
  activity change, negative = inhibition: inconclusive: 36.5% [activator]
[2]
  activity change, negative = inhibition: inconclusive: -73.8% [inhibitor]
[3]
  activity, negative = inhibition: inconclusive: -41.1% [inhibitor] [at 17.2 µM]

## O=c1c(-c2ccc(F)cc2)nc2cnc(N3CCOCC3)nc2n1-c1ccccc1
[1]
  activity change, negative = inhibition: inconclusive: 93.7% [activator] [at 7.69 µM]
[2]
  activity change, negative = inhibition: inconclusive: 94.9% [activator] [at 7.69 µM]
[3]
  activity, negative = inhibition: inconclusive: 172% [activator]
[7]
  Potency: inconclusive: 3.16 µM [activator, partial curve]
[4]
  Potency: active: 1.26 µM

## CCNc1ncc2nc(-c3ccc(OC)cc3)c(=O)n(CCc3ccccc3)c2n1
[1]
  activity change, negative = inhibition: active: 107% [activator] [at 7.69 µM]
[2]
  activity change, negative = inhibition: inconclusive: 32.9% [activator] [at 7.69 µM]
[3]
  activity, negative = inhibition: active: 122% [activator]
[7]
  Potency: inconclusive: 10 µM [activator, single point]
[4]
  Potency: active: 0.501 µM
[11]
  Potency: inactive
